The other results are listed elsewhere or left out. At the low end of the ranking the order means little.
Each sequence was assayed against SIX1-Q177R homeodomain (UniProt Q15475) (assay: universal protein binding microarray). Conditions: Universal all-10-mer PBM (8x60K, AMADID 030236), 300 nM GST-tagged protein, Alexa Fluor 488 anti-GST; buffer, salt, pH and temperature not stated; high values mean tight binding; most listed sequences are background and not binding sites; double strand, one strand shown.

Sequence | binding signal [E-score]
ATGTGACG | -0.154
GTACGTCA | -0.0532
CATGGAGG | 0.134
GTGACCAC | 0.00314
CCGCGCCC | 0.0688
ACTTATCA | -0.155
ACGAAGTA | 0.154
AGGCACGG | -0.0932
AAGAACAT | -0.252
AGCCCGTA | -0.126
GCTGTCCA | -0.144
GTATCCAA | 0.292
CCTCCATA | -0.102
AATTAGCG | -0.179
CATGGCAG | -0.0998
CCATGATC | -0.0299
AGTAAAGG | 0.0156
AATCACGA | -0.2
GGGATCCA | 0.211
CGGGTCTC | 0.207
CCTCGGAA | 0.067
CAAGTATG | -0.0537
GACAGAGA | -0.198
AATGACGG | -0.0674
GACTTGTA | -0.0205

Sequence | binding signal [E-score]
AGATCAAT | -0.17
CTCCCCTC | 0.091
ATATTACA | 0.196
GCGTCGAC | 0.0629
ATTTCACA | 0.0432
TAGGAAAA | -0.158
CGCAAACC | 0.0622
AACCGGTC | -0.2
AGATCAAC | 0.14
CGATCGGC | -0.211
AACTACTT | -0.0542
CAGATACG | -0.0788
CACTTTTA | -0.0615
AGTCAGTG | 0.207
AGAGTATA | 0.0593
GTCTGCCA | -0.00898
AAGACGCA | -0.231
AAGTGGTG | 0.337
GCGCTGAA | -0.264
GTAGATAC | 0.0991
AGGTCGAT | -0.017
AATTAACC | 0.00677
AGCAGGAC | -0.107
ATTTGACA | 0.216
GACCATGA | -0.0554

Sequence | binding signal [E-score]
GGCACTAC | 0.0372
CCCCTCCG | 0.274
ATGAGTAC | -0.123
ACCTCCCC | 0.0648
ACAACTGT | 0.0139
AGTCGGAG | -0.0133
ACCGCGCT | 0.0509
CGAGCGCG | 0.0546
GAAATCAA | -0.3
GGGGGTAA | 0.354
CGTGGATC | -0.0273
GAATTAGC | -0.228
AAGAGATT | -0.229
CAAGAAAA | -0.166
ATGCAGCG | -0.275
CCTTGCTA | -0.151
GAGAGCAC | 0.0572
CATCAACA | 0.0552
GTTCTCGA | -0.262
GTACACGA | 0.419
CAAAATGG | -0.153
AAGGCGGA | -0.12
CCGCGACG | -0.0348
GTATGGTA | 0.159
TGACCTAA | -0.189

Sequence | binding signal [E-score]
CCGCCGCG | 0.108
ATCTGTCC | -0.0269
GCGCTTCA | -0.123
CGCCCTTC | -0.0691
ATATGGCC | -0.163
ACACTTTG | 0.31
GCTCGCTA | -0.102
ACTCAAAA | 0.0954
TAAAAGCA | -0.133
ACGAACAC | 0.399
ACCCCGCC | 0.271
CCGGCACA | -0.0107
CCTTGGTC | -0.112
CACCTGGC | 0.152
GCTTACAC | 0.437
CTCACGTC | -0.231
AGTGCTAT | -0.00949
AAGCTCTG | -0.246
CGGTAGGC | 0.0525
AAGCGATA | -0.131
TCAGCGGA | -0.172
CAACCTAG | -0.0416
CACCTCCG | 0.344
GACACATC | 0.0991
GCGCGGAC | -0.0897

Sequence | binding signal [E-score]
ATTCCATA | -0.234
ACTGAGAT | -0.0796
AAAGACTC | -0.161
AAATGGGA | -0.06
CTGAAAAC | -0.0981
AAATCCAC | 0.0134
CAGGGTGG | 0.161
ACCAGCAG | -0.0691
CAAATGGG | 0.0352
CTATCAAC | 0.0222
GACTTAAA | -0.156
AGCTTGAC | -0.0798
GTAATCAA | -0.0178
CGGCGCAC | 0.11
CATTAAAA | -0.127
ACAGCAAC | -0.243
CCCATAAA | -0.101
AGTGCGCG | -0.0551
AATGCCGA | -0.167
TATCCATA | 0.0901
GCGAGGAA | -0.13
CTCATAAG | -0.0267
AACACCCA | 0.456
CGGTGTAA | 0.481
AAGACCTA | -0.356

Sequence | binding signal [E-score]
CACTGGCC | 0.073
TTGCTAAA | -0.202
ACCAATCT | 0.0812
GAAAGTTC | -0.171
TAGGGCGA | -0.159
AATATTCC | -0.079
GGCAATGA | -0.064
AACTTGTA | -0.127
CACTAGGG | 0.201
ATGCCGAA | -0.139
GTAACATA | 0.196
CGGGATCA | 0.269
CAATGGGA | -0.141
AAGGAGGA | -0.0209
ACCTGCAT | -0.0938
AACATTTC | -0.258
ACTGCAGT | -0.125
AGTGTCTG | 0.302
ATCCCCGC | 0.135
GGGCAGAA | -0.0853
AAGTGAAC | -0.0745
CATATCAG | -0.0881
GCTATGAA | -0.0465
CGGACGGA | -0.201
ACCAGTCG | -0.119

Sequence | binding signal [E-score]
ACTACAGG | 0.0176
ATAGTTAG | -0.158
AGGCCTGG | -0.0671
CAGACACA | 0.19
TGTGCCAA | -0.0753
CATCGGCA | -0.131
AGAGCGCG | -0.246
ATCCCCGA | 0.0891
GTTCGCCA | -0.203
GACCGAAC | -0.13
GGTGTGTA | 0.411
AATAGTTC | -0.312
CCGCTACA | 0.215
GAGCGCTA | -0.139
CAGCGTTC | -0.157
ATTATTTC | -0.0658
AATTGATG | -0.107
TCGATTCA | 0.00232
ACTTGGCG | -0.124
CTCAGCGA | 0.044
CATTGTGC | -0.154
ACTAAGCC | -0.0781
CTCGATTC | -0.264
TACGGAAA | -0.131
CCTAGCTC | -0.0229

Sequence | binding signal [E-score]
CGGGCTAA | 0.0273
CCCACCGG | 0.085
ATACCCGC | 0.266
AGGGGAAT | -0.093
CACCCACA | 0.365
AACAGCAG | -0.232
AGAGAAAT | -0.35
ATCGTCTC | -0.0682
AACAACCA | -0.0599
TAAGGCTA | 0.0119
AAGGCCGT | -0.131
CCGATCCG | 0.217
GAGTCGAC | 0.212
ATGCGACC | -0.0999
TCCCCCCA | -0.12
ACACGGAC | 0.367
ACGTGACA | 0.126
CGAGGGTC | 0.107
AATGGTGG | -0.0246
GGTACACC | 0.485
ATCGAGCG | -0.00387
CGACTGCG | -0.139
ACTGCCGC | -0.0696
ACTGCTAT | -0.07
CCTCTCGC | 0.0448

Sequence | binding signal [E-score]
AGGGCGAA | -0.205
ACCCGAAC | 0.173
AGCTCTAG | -0.133
GAGACCTA | -0.277
ATCTTCAG | -0.182
CGAAGCGC | -0.0557
CTCATAAA | -0.146
TCCCCTAA | 0.172
GTTTGCTA | 0.0544
GCGTCCAC | -0.0851
ACTAAACG | 0.0995
CTGCACCC | 0.209
ATTGCAGC | -0.128
AACAAGTA | -0.187
AATTAGTA | 0.0282
AGGCCTGA | -0.149
ATATGTCA | -0.233
ATCTGGAC | -0.134
CAAATGAG | -0.143
AGGTTCGA | 0.038
GCTGCACA | 0.0436
CAAACTCC | -0.173
TGGAGACA | 0.12
CATTTAGC | -0.019
CGCCCAGC | 0.161

Sequence | binding signal [E-score]
ACCCGGCG | 0.235
ACAACCCT | 0.134
CCCAAAAG | -0.0822
GATGATGC | -0.156
AGAAGTTA | -0.0957
AATGTGAA | -0.24
CAGATTCA | -0.14
CCTAACAA | -0.0714
ATACGTAT | 0.0181
AAACCGCT | -0.0952
GATTCCAA | 0.023
ATTAACCA | -0.167
CGTGCCTC | -0.158
ATCTCCAT | -0.00556
AAGAGGGC | -0.156
GTTGCCTA | -0.12
GCGGACAC | 0.406
TAAAATAA | -0.0356
CCCAGATA | 0.0386
CGTACACC | 0.483
ATACGGGG | 0.171
ACGGCCCC | -0.229
GATATAGC | -0.0754
CTAGAGGC | -0.186
AGTCTTCC | -0.183

Sequence | binding signal [E-score]
GCACGTTA | 0.0329
GCGATCAA | -0.0272
CATGGATC | -0.0404
GCAGTGCC | -0.179
AATATGGC | -0.174
AGGACCAG | -0.194
GGCCAGAA | -0.0561
ATAACTAA | 0.0971
GGCATGCC | -0.206
TCTGCTAA | -0.223
AGGGTGCC | 0.0895
CTGTCACC | -0.0158
CGACCAGC | -0.0689
AATGCGGG | -0.0794
ACCTTCAT | 0.00864
ATCGAAGC | -0.0597
CTCAGGAC | -0.132
CGCCGGGA | -0.0506
GGGAAATA | -0.205
GCGTACCC | 0.237
ACGGGCAA | -0.0223
ACCTACCT | 0.0857
CGCAGCAA | -0.152
CCGCACCG | 0.132
ACTGGTGG | 0.0343

Sequence | binding signal [E-score]
AAGACTAT | -0.132
ACTACTCT | 0.0953
GCCGGGAC | -0.0849
ACCTCACT | 0.0834
AAATCGCG | -0.158
ACGGGGTG | 0.338
TACTCCGA | 0.211
CGTTCTTC | -0.126
CCCTAAGA | 0.276
CCGGCAAA | 0.0012
GCTCTAAC | 0.0115
CTGTCGGA | -0.0989
CTATGCAG | 0.0387
ACAACTAC | 0.0708
AGTATTTA | 0.00369
ATCGCGCC | -0.136
CCACTCGC | 0.222
GTTTATAA | 0.0856
GCTAGTGA | -0.145
GTTCCACA | 0.128
GAGACCCA | -0.153
ATAATAAC | -0.0614
GACCGGCA | -0.0159
ACAGGGAA | -0.0935
ACGTAAGG | -0.0875

Sequence | binding signal [E-score]
AGGGGAGG | 0.126
AGAGGCAG | -0.124
ACACCGTC | 0.459
ATGAAGGA | 0.0681
CCTCATTA | 0.0548
TAAGTTAA | -0.0429
TAGCCTCA | -0.0394
ACAAAACC | -0.0304
CCCAAGAG | -0.0214
AGCCGCGA | 0.0221
AACATTGT | -0.209
AACCCTAT | 0.0221
ACCGATGC | -0.0302
AGTGCAAT | 0.0431
AGCTACAT | -0.0103
AGTGACAG | -0.272
CACTTTCG | 0.116
GCAGACAA | -0.175
CCGATGCA | 0.0461
GACTTGCA | -0.162
ATAGAAAC | -0.0877
GGTCCCCA | -0.112
GGCTGACA | 0.254
GACGAAAA | -0.206
AATTCAGA | -0.17

Sequence | binding signal [E-score]
TCTCGGCA | -0.0762
TCTCACAA | -0.141
CTCAAAGC | -0.253
ATTCCTGA | 0.0148
ACACCAAG | 0.455
AGAATCTG | -0.186
AAAAGAAG | -0.102
GACGGCTC | -0.0832
GAATATTC | -0.148
GGGTAGAC | 0.0222
ACCAGGAA | -0.208
CTCCTGAC | 0.148
ACGCGCGG | 0.0107
GTCAGAAA | -0.109
CTCCCGTC | 0.00376
CGAGCTCG | 0.0221
CTACATCA | -0.0239
AGAGAAGC | -0.217
ATACTCTG | 0.0991

Reference: PMC10668032
